Experimental data: PubChem BioAssay AID995 (National Center for Advancing Translational Sciences (NCATS), 2007)
“And” between values parts separate entries of the source, which are not always exact repeats. Equal values may be shown once. About 710 (0.99%) of roughly 72,000 compounds were called active. The inconclusive results got no clear call from the source; some entries with a clear call stand among them for comparison. The call rests on the fitted dose curve; in most records, active means well fitted inhibition curve with a large enough effect; inconclusive means small, poorly fitted or top-dose-only effect; inactive means no such curve, though single readings can be large or run the other way. Potencies beside an inconclusive call are fits to weak or partial responses and may not hold up.

Experiment: qHTS Assay for Inhibitors of the ERK Signaling Pathway using a Homogeneous Screening Assay; further: nearly all actives have a fitted effect of over 55% in size
Settings: HEK293-V1b, vasopressin-stimulated pERK AlphaScreen; activity, negative = inhibition: at 57.5 µM (top of the series) unless noted
Summary of the method: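 qHTS, compounds titrated on V1b-expressing HEK293 cells. Preincubation 30 min at 37C, vasopressin 25 nM for 5 min, lysis 10 min, bead incubation 5 hr at room temperature.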
On the % scale 0 is the no-effect control and ±100 the full control effect; potency means the concentration at half of the fitted maximal effect; tags describe the fitted curve by direction and shape.

SMILES | Potency | activity, negative = inhibition
CCN(CC)S(=O)(=O)c1ccc2nc(NC(=O)c3cccs3)sc2c1 | inconclusive: 25.1 µM [inhibitor, partial curve] | –
CCOc1ccc2ccccc2c1/C=N/n1cncn1 | inconclusive: 25.1 µM [inhibitor, single point] | –
CCn1nc(C)c(NC(=O)CCCSc2nc(-c3ccco3)cc(C(F)(F)F)n2)c1C | inconclusive: 15.8 µM [inhibitor, partial curve] | –
Cn1c(=O)c2c(nc(N3CCCCC3)n2CCNC2=NCCC2)n(C)c1=O | inconclusive: 15.8 µM [inhibitor, partial curve] | –
COc1cc2c(cc1OC)-c1cc(=Nc3c(C)cc(C)cc3C)n(C)c(=O)n1CC2 | active: 12.6 µM and active: 6.31 µM | –
N#CCCn1c(=O)c(-c2cccs2)nc2cnc(N3CCOCC3)nc21 | inconclusive: 5.01 µM [inhibitor, full curve, poor fit] | –
COC(=O)[C@H](C)[C@H]1C[C@]1(C)[C@H](NC(=O)OCc1ccccc1)c1ccccc1 | inconclusive: 31.6 µM [inhibitor, single point] | –
O=c1cc(-c2ccccc2)nc2nc(CCc3ccccc3)[nH]n12 | inactive | –
CCc1nnc(NC(=O)CSc2nnc(-c3ccccc3OC)n2-c2ccccc2)s1 | inactive | –
COC(=O)CSc1nc(N2CCOCC2)c2c(c1C#N)CC(C)(C)N(C)C2 | inconclusive: 25.1 µM [inhibitor, partial curve, poor fit] | –
CCOC(=O)c1c(C)c(C(=O)NCCOC)c(C)n1CC | inconclusive: 15.8 µM [inhibitor, partial curve, poor fit] | –
O=C(CCCCCNc1nc(=S)[nH]c2ccccc12)N1CCN(c2ccccn2)CC1 | active: 12.6 µM | –
COc1ccc(-c2csc(NC(C)=O)n2)cc1OC | inconclusive: 6.31 µM [inhibitor, full curve] | –
Cc1nc(NCCNC(=O)c2ccco2)c2c(C)c(C)sc2n1 | inconclusive: 12.6 µM [inhibitor, single point] | –
CC(C)(C)c1ccc(OCC(=O)O)c(Cl)c1 | – | inactive: -3.2% [at 11.5 µM]
Cn1c(CCCOc2ccc(Cl)cc2Cl)nnc1SCC(=O)Nc1nccs1 | active: 31.6 µM | –
COc1ccc(C)cc1NC(=O)C1CCCN1S(=O)(=O)c1ccc2c(c1)CCC(=O)N2 (configuration not stated) | inconclusive: 12.6 µM [inhibitor, partial curve] | –
C=CCN=C(NC#N)SCC(=O)c1cccc(OC)c1 | inconclusive: 25.1 µM [inhibitor, partial curve, poor fit] | –
COc1cccc(N2C(=O)CC(N3CCC(c4nc5ccccc5[nH]4)CC3)C2=O)c1 (configuration not stated) | inconclusive: 25.1 µM [inhibitor, partial curve, poor fit] | –
O=C(O)[C@@H]1CSC2(CCSC2)N1 (some centres not stated) | inconclusive: 31.6 µM [inhibitor, partial curve] | –
OCc1cn(-c2ccccc2)nc1-c1ccc2c(c1)OCCO2 | active: 25.1 µM | –
CC1=C(C(=O)OCc2ccccc2)C(c2ccco2)n2ncnc2N1 (configuration not stated) | inconclusive: 12.6 µM [inhibitor, single point] | –
CCN[C@@H]1C[C@H](C)S(=O)(=O)c2sc(S(N)(=O)=O)cc21 | inactive | –
C=C1C(=O)OC2C[C@@]3(C)CCCC(C)C3=CC12 (some centres not stated) | inactive | –

SMILES | Potency | activity, negative = inhibition
Clc1ccccc1-c1nccc(NCc2ccccc2)n1 | inconclusive: 39.8 µM [inhibitor, single point] | –
CCC1=C2CC[C@H]3C(=O)N(c4ccccc4)C(=O)[C@H]3[C@H]2[C@@]2(Cc3ccccc3)C(=NCCOC)OC(=O)N2C1=O | inactive | –
Brc1ccc(-c2nnc3n2-c2ccccc2CC3)cc1 | inactive | –
Cc1cc(C)n(-c2nnc(C)c(=O)[nH]2)n1 | inactive | –
Cc1cc(Nc2ccc3c(c2)OCCO3)n2ncnc2n1 | inconclusive: 39.8 µM [inhibitor, single point] | –
CCc1cc2ccccc2nc1SCC(=O)Nc1cc(C)on1 | inactive | –
CCc1nnc(NC(=O)CSc2nnc(-c3ccccc3O)n2-c2ccc(C)cc2C)s1 | inactive | –
O=C(Nc1cccc(S(=O)(=O)C(F)F)c1)c1ccc(Cl)c(S(=O)(=O)N2CCOCC2)c1 | active: 12.6 µM | –
COCCCn1c(=N)c(C(=O)NCC2CCCO2)cc2c(=O)n3cccc(C)c3nc21 (configuration not stated) | inconclusive: 3.16 µM [inhibitor, partial curve] | –
Cc1cc(C)n(-c2ccc(C(=O)Nc3ccccn3)cc2)n1 | inactive | –
CCCCCCCN | inactive | –
COc1ncc2nc(CCc3ccccc3)c(=O)n(CCC#N)c2n1 | inconclusive: 15.8 µM [inhibitor, partial curve] | –
Clc1ccccc1CSc1nnc(-c2ccccn2)n1Cc1ccco1 | – | inconclusive: -31.1% [inhibitor]
CC1Oc2ccccc2N(CC(=O)c2ccccc2)C1=O (configuration not stated) | inactive | –
Cc1ccc(CNc2oc(-c3cccs3)nc2C#N)cc1 | inconclusive: 0.0158 µM [inhibitor, full curve, poor fit] | –
CN(C)c1ccc(-c2cncnc2N(C)Cc2ccco2)cc1 | inconclusive: 15.8 µM [inhibitor, partial curve] | –
[O-][n+]1c(CN2CCCCC2)nc2cccc3c2c1-c1ccccc1-3 | – | inactive: 20.4% [at 11.5 µM]
C[C@@H](/C=C\c1cccc(Oc2ccc(F)cc2)c1)N(O)C(N)=O | inconclusive: 39.8 µM [inhibitor, single point] | –
CCOC(=O)N1CCN(C(=O)C(C)N(c2ccc(Oc3ccccc3)cc2)S(C)(=O)=O)CC1 (configuration not stated) | inconclusive: 0.02 µM [inhibitor, full curve, poor fit] | –
CCn1c(SCC(=O)Nc2ccccc2N2CCCCC2)nc2c1c(=O)n(C)c(=O)n2C | inactive | –
COC(=O)c1c(N)n(-c2ccc(NC(C)=O)cc2)c2nc3ccccc3nc12 | inactive | –
O=C(O)CCN1Cc2ccccc2C1=O | inactive | –
Cc1noc(C)c1C(=O)Nc1nc(C23CC4CC(CC(C4)C2)C3)cs1 | active: 20 µM | –
COc1ccc(OCCN2C(=O)NC(C)(c3ccc(C)cc3)C2=O)cc1 (configuration not stated) | inconclusive: 39.8 µM [inhibitor, single point] | –

SMILES | Potency | activity, negative = inhibition
COc1cccc(C(=O)CSc2nnc(CNc3nc(-c4ccccc4)cs3)n2C)c1 | inconclusive: 20 µM [inhibitor, single point] | –
CCc1cccc(NC(=O)CCc2nc(-c3cccs3)no2)c1 | active: 25.1 µM | –
COc1ccc(-c2cc(C(=O)N3CCN(c4ccccn4)CC3)c3ccccc3n2)cc1 | active: 10 µM | –
COc1cc2cc3c4cc(OC)c(OC)cc4cc[n+]3c(C)c2cc1OC | inactive and inconclusive: 39.8 µM [inhibitor, single point] | –
O=C(COC(=O)c1c2c(nc3ccccc13)CCCC2)Nc1ccc2c(c1)OCO2 | inconclusive: 31.6 µM [inhibitor, single point] | –
O=C1NCCCc2c1oc1cc(Br)c(O)c(Br)c21 | inconclusive: 3.16 µM [inhibitor, partial curve] | –
Cc1nc2cc(NC(=O)N(C)c3ccc4ccccc4c3)ccc2o1 | inconclusive: 25.1 µM [inhibitor, partial curve] | –
COc1cccc(-c2cc(=O)c3cc(O)ccc3o2)c1 | inconclusive: 7.94 µM [inhibitor, full curve, poor fit] | –
CCOC(=O)N1CCN(c2nc3ccccc3nc2C(C#N)C(=O)NCCc2ccccc2)CC1 (configuration not stated) | inactive | –
CCOC(=O)N1CCN(C2=Nc3cccc4cccc2c34)CC1 | inconclusive: 39.8 µM [inhibitor, single point] | –
O=C1[C@H]2[C@@H](C(=O)N1c1cc(Cl)cc(Cl)c1)[C@]1(C(=O)Nc3ccccc31)N1CCC[C@@H]21 | inconclusive: 39.8 µM [inhibitor, single point] | –
Cc1nn(-c2ccc(F)cc2F)c2c1-c1nc(N3CCCC3)ncc1CC2 | inactive | –
Nc1nncn1C(=O)c1c(Cl)cccc1Cl | inactive | –
N#Cc1nc(COc2cccc(Cl)c2)oc1NCc1ccncc1 | inconclusive: 0.199 µM [inhibitor, full curve, poor fit] | –
COc1ccc(C(=O)N2CCC3(CC2)CN(c2cccc(-c4ccccc4)c2)C3)cc1 | inconclusive: 25.1 µM [inhibitor, single point] | –
COc1ccc(CCNc2oc(COc3ccccc3F)nc2C#N)cc1OC | inconclusive: 39.8 µM [inhibitor, single point] | –
CC(C)(C)n1nnnc1C(c1ccncc1)N1CCCCCC1 (configuration not stated) | inactive | –
COc1ccccc1CCn1c(=O)c(-c2ccc(F)cc2)nc2cncnc21 | inconclusive: 20 µM [inhibitor, single point] | –
O=c1c2[nH]c3cccc(Cl)c3c2ncn1Cc1ccncc1 | inconclusive: 31.6 µM [inhibitor, partial curve] | –
COc1ncc2nc(C)c(=O)n(CCC#N)c2n1 | inconclusive: 39.8 µM [inhibitor, partial curve, poor fit] | –
CCOC(=O)C1CCN(C(=O)Nc2ccc3c(c2)nc(C)n3C)CC1 | inactive | –
CCCS(=O)(=O)c1c(S(=O)(=O)CCC)c2c(N)cccn2c1C(=O)c1ccc(F)cc1 | inconclusive: 31.6 µM [inhibitor, single point] | –
CN1C[C@@H](C(=O)N[C@]2(C)O[C@]3(O)[C@H]4CCCN4C(=O)[C@H](Cc4ccccc4)N3C2=O)C[C@H]2c3cccc4[nH]cc(c34)C[C@@H]21 | inactive | –
COc1cccc2cc(-c3nnc(SCC(=O)Nc4nc(C)cs4)n3C)oc12 | inconclusive: 15.8 µM [inhibitor, partial curve] | –
